Some of the results follow. Single values are uncertain, as repeats are few or missing.
Experiments:
Experiment in all cases: cell count relative to DMSO control; melanoma cells; higher = more viable cells
Conditions in all cases: library dose: standard library concentration; 72 h
G361 = test system: G361
IPC-298 = test system: IPC-298
IST-MEL1 = test system: IST-MEL1
LB2518-MEL = test system: LB2518-MEL
LOXIMVI = test system: LOXIMVI
MEL-HO = test system: MEL-HO
MZ2-MEL = test system: MZ2-MEL
MeWo = test system: MeWo
RPMI7951 = test system: RPMI7951
RVH-421 = test system: RVH-421
SkMel28 = test system: SkMel28
SkMel2 = test system: SkMel2
SkMel30 = test system: SkMel30
SkMel5 = test system: SkMel5
UACC257 = test system: UACC257
UACC62 = test system: UACC62
WM115 = test system: WM115
WM1716 = test system: WM1716
WM1745 = test system: WM1745
WM3526 = test system: WM3526
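Note: cells treated in 1,536-well plates, then fixed and DAPI-stained, with nuclei counted from automated high-throughput microscope images.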

## CC(=O)c1c(C)c2cnc(Nc3ccc(N4CCNCC4)cn3)nc2n(C2CCCC2)c1=O [palbociclib] + Cn1c(Nc2ccc(C(F)(F)F)cc2)nc2cc(Oc3ccnc(-c4ncc(C(F)(F)F)[nH]4)c3)ccc21 [CHIR265] (first compound 0.2 µM, partner dose 0.4 µM)
G361
  cell count: 19.7%
IPC-298
  cell count: 33.9%
IST-MEL1
  cell count: 58.4%
LB2518-MEL
  cell count: 29.5%
LOXIMVI
  cell count: 67.1%
MEL-HO
  cell count: 47.4%
MZ2-MEL
  cell count: 55.3%
MeWo
  cell count: 34.7%
RPMI7951
  cell count: 47.1%
RVH-421
  cell count: 57.9%
SkMel28
  cell count: 22.7%
SkMel2
  cell count: 45.6%
SkMel30
  cell count: 37.8%
SkMel5
  cell count: 39.7%
UACC257
  cell count: 68%
UACC62
  cell count: 43%
WM115
  cell count: 27.9%
WM1716
  cell count: 37.5%
WM1745
  cell count: 55.4%
WM3526
  cell count: 40%

## CC(=O)c1c(C)c2cnc(Nc3ccc(N4CCNCC4)cn3)nc2n(C2CCCC2)c1=O [palbociclib] + Nc1cccc2c1CN(C1CCC(=O)NC1=O)C2=O [lenalidomide] (first compound 0.2 µM, partner dose 5 µM)
G361
  cell count: 74.9%
IPC-298
  cell count: 69.9%
IST-MEL1
  cell count: 74.5%
LB2518-MEL
  cell count: 53.3%
LOXIMVI
  cell count: 81.7%
MEL-HO
  cell count: 65.4%
MZ2-MEL
  cell count: 62.6%
MeWo
  cell count: 63.8%
RPMI7951
  cell count: 64.3%
RVH-421
  cell count: 50.7%
SkMel28
  cell count: 62.2%
SkMel2
  cell count: 65.4%
SkMel30
  cell count: 57.3%
SkMel5
  cell count: 64.2%
UACC257
  cell count: 78.4%
UACC62
  cell count: 71.8%
WM115
  cell count: 65.2%
WM1716
  cell count: 48.7%
WM1745
  cell count: 62.5%
WM3526
  cell count: 49.8%

## Nc1nc(F)nc2c1ncn2[C@@H]1O[C@H](CO)[C@@H](O)[C@@H]1O [fludarabine] + Nc1ncn([C@H]2C[C@H](O)[C@@H](CO)O2)c(=O)n1 [decitabine] (first compound 1 µM, partner dose 0.5 µM)
G361
  cell count: 68.6%
IPC-298
  cell count: 54.3%
IST-MEL1
  cell count: 50.8%
LB2518-MEL
  cell count: 75%
LOXIMVI
  cell count: 68.7%
MEL-HO
  cell count: 60.5%
MZ2-MEL
  cell count: 73.8%
MeWo
  cell count: 69.2%
RPMI7951
  cell count: 43.4%
RVH-421
  cell count: 59.1%
SkMel28
  cell count: 3.88%
SkMel2
  cell count: 1.21%
SkMel30
  cell count: 10.9%
SkMel5
  cell count: 16.3%
UACC257
  cell count: 31.3%
UACC62
  cell count: 61.4%
WM115
  cell count: 66.7%
WM1716
  cell count: 67.7%
WM1745
  cell count: 69.7%
WM3526
  cell count: 27.4%

## Nc1ccn([C@@H]2O[C@H](CO)[C@@H](O)C2(F)F)c(=O)n1 [gemcitabine] + CC(C)(C)c1cnc(CSc2cnc(NC(=O)C3CCNCC3)s2)o1 [SNS-032] (first compound 0.002 µM, partner dose 0.05 µM)
G361
  cell count: 46.5%
IPC-298
  cell count: 76.5%
IST-MEL1
  cell count: 36.6%
LB2518-MEL
  cell count: 55.2%
LOXIMVI
  cell count: 67.1%
MEL-HO
  cell count: 64%
MZ2-MEL
  cell count: 83.2%
MeWo
  cell count: 43.3%
RPMI7951
  cell count: 19.6%
RVH-421
  cell count: 54%
SkMel28
  cell count: 90.6%
SkMel2
  cell count: 68.6%
SkMel30
  cell count: 103%
SkMel5
  cell count: 69.4%
UACC257
  cell count: 101%
UACC62
  cell count: 75.3%
WM115
  cell count: 79.7%
WM1716
  cell count: 52.2%
WM1745
  cell count: 51.6%
WM3526
  cell count: 114%

## Nc1ccn([C@@H]2O[C@H](CO)[C@@H](O)C2(F)F)c(=O)n1 [gemcitabine] + Nc1cccc2c1CN(C1CCC(=O)NC1=O)C2=O [lenalidomide] (first compound 0.002 µM, partner dose 5 µM)
G361
  cell count: 41%
IPC-298
  cell count: 41.2%
IST-MEL1
  cell count: 39.5%
LB2518-MEL
  cell count: 60.2%
LOXIMVI
  cell count: 84.7%
MEL-HO
  cell count: 58.4%
MZ2-MEL
  cell count: 85%
MeWo
  cell count: 35.6%
RPMI7951
  cell count: 45.3%
RVH-421
  cell count: 34%
SkMel28
  cell count: 86%
SkMel2
  cell count: 93.5%
SkMel30
  cell count: 106%
SkMel5
  cell count: 92.8%
UACC257
  cell count: 102%
UACC62
  cell count: 73.2%
WM115
  cell count: 67.6%
WM1716
  cell count: 67%
WM1745
  cell count: 41.8%
WM3526
  cell count: 83.4%

## CC(=O)c1c(C)c2cnc(Nc3ccc(N4CCNCC4)cn3)nc2n(C2CCCC2)c1=O [palbociclib] + Cn1nnc2c(C(N)=O)ncn2c1=O [temozolomide] (first compound 0.2 µM, partner dose 10 µM)
G361
  cell count: 66.9%
IPC-298
  cell count: 75.8%
IST-MEL1
  cell count: 85.8%
LB2518-MEL
  cell count: 63.4%
LOXIMVI
  cell count: 65.1%
MEL-HO
  cell count: 79.7%
MZ2-MEL
  cell count: 73.1%
MeWo
  cell count: 53.9%
RPMI7951
  cell count: 88.9%
RVH-421
  cell count: 46.2%
SkMel28
  cell count: 37.8%
SkMel2
  cell count: 67.2%
SkMel30
  cell count: 59.8%
SkMel5
  cell count: 61.6%
UACC257
  cell count: 82.9%
UACC62
  cell count: 63.8%
WM115
  cell count: 53.6%
WM1716
  cell count: 45%
WM1745
  cell count: 103%
WM3526
  cell count: 48.4%

## CC(=O)O[C@@]12CO[C@@H]1C[C@H](O)[C@@]1(C)C(=O)[C@H](O)C3=C(C)[C@@H](OC(=O)[C@H](O)[C@@H](NC(=O)OC(C)(C)C)c4ccccc4)C[C@@](O)([C@@H](OC(=O)c4ccccc4)[C@H]21)C3(C)C [Docetaxel] + CC(=O)c1c(C)c2cnc(Nc3ccc(N4CCNCC4)cn3)nc2n(C2CCCC2)c1=O [palbociclib] (first compound 0.0005 µM, partner dose 0.2 µM)
G361
  cell count: 24.7%
IPC-298
  cell count: 40%
IST-MEL1
  cell count: 43.2%
LB2518-MEL
  cell count: 40.5%
LOXIMVI
  cell count: 48.9%
MEL-HO
  cell count: 52.7%
MZ2-MEL
  cell count: 40.2%
MeWo
  cell count: 32.9%
RPMI7951
  cell count: 29.1%
RVH-421
  cell count: 49.7%
SkMel28
  cell count: 21.5%
SkMel2
  cell count: 32.6%
SkMel30
  cell count: 43.7%
SkMel5
  cell count: 31.9%
UACC257
  cell count: 58.1%
UACC62
  cell count: 55.7%
WM115
  cell count: 38.2%
WM1716
  cell count: 38.1%
WM1745
  cell count: 46.4%
WM3526
  cell count: 37.2%
